The source of these data is paper PMC11126936, “Reactivating Hippo by drug compounds to suppress gastric cancer and enhance chemotherapy sensitivity” (The Journal of Biological Chemistry, 2024).

“And” between values parts separate entries of the source, which are not always exact repeats. Identical values can stand only once. Counter-ions that a name gives are not always drawn.

The first assay deals with T1, PP2Aa–STRN3 interaction (Homo sapiens, UniProt P30153). Briefly: First-round AlphaScreen, PP2Aa–STRN3 disruption (Table S1). As to conditions: primary AlphaScreen.
T1 sequence (P30153 8-589): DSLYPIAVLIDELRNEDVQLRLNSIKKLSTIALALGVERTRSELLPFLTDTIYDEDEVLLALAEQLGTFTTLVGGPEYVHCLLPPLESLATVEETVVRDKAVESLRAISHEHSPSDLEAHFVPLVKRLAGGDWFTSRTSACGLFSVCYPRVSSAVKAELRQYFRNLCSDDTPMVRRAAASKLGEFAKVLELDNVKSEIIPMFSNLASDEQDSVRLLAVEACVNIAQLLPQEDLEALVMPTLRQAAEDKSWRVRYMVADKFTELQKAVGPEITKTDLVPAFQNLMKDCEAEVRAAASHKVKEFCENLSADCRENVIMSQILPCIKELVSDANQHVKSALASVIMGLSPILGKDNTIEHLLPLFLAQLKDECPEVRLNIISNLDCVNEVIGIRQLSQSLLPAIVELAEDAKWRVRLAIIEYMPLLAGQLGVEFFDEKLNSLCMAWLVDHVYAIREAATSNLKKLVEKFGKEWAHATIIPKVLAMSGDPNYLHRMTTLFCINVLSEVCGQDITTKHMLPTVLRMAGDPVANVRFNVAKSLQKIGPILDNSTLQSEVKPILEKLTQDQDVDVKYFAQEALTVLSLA
In the case of `C[N+](C)(C)CC(=O)O` [BETAINE HYDROCHLORIDE], the “Inhibition rate (%)” value is recorded as -6.8536%.
With `CNC1CCCN(c2c(F)cc3c(=O)c(C(=O)O)cn(C4CC4)c3c2OC)C1` (stereo not drawn) [Balofloxacin], the “Inhibition rate (%)” value was -3.154%.

For a further assay, the target named is T2, STRN3–MST2 interaction (Homo sapiens, UniProt Q13188).
T2 sequence (Q13188 1-491): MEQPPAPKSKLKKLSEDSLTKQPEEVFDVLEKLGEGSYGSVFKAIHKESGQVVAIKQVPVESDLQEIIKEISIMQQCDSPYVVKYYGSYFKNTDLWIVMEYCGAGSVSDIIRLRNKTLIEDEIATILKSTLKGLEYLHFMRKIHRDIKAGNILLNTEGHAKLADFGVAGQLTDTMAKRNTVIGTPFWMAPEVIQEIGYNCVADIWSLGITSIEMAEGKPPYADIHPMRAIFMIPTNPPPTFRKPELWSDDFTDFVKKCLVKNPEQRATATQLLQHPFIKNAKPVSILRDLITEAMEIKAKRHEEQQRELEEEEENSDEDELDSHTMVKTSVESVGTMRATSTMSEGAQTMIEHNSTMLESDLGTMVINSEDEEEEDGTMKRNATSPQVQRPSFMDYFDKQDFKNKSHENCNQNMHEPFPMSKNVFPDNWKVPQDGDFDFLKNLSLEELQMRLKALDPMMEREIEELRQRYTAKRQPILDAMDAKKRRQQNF
Description: Primary AlphaScreen, STRN3–MST2 disruption (Table S3). The format is binding. Details: His-SUMO; made in house; host or cells: E. coli BL21 Codon plus (DE3).
Details: not given
Turning to `C[N+](C)(C)CC(=O)O` [BETAINE HYDROCHLORIDE], the “Inhibition rate (%)” value was -4.318%.
Same read-out and setting: in the case of `CNC1CCCN(c2c(F)cc3c(=O)c(C(=O)O)cn(C4CC4)c3c2OC)C1` (stereo not drawn) [Balofloxacin] it was 7.865%.

A further assay concerns the target T1, PP2Aa–STRN3 interaction. Briefly: Second-round validation AlphaScreen, PP2Aa–STRN3 disruption (Table S2).
Details: not given
The format is binding. More on the design: GST; SUMO; made in house; host or cells: E. coli BL21 Codon plus (DE3). In general terms: In Alpha technology, singlet oxygen from a donor bead excites a nearby acceptor bead.
`COc1cc(N2CCC(N)CC2)ccc1Nc1ncc(Cl)c(-c2c[nH]c3ccccc23)n1` [AZD3463]: the “Inhibition rate (%)” value is 68.7355%.
For `CC1=C(O)C(=O)C=C2C1=CC=C1[C@@]2(C)CC[C@@]2(C)[C@@H]3C[C@](C)(C(=O)O)CC[C@]3(C)CC[C@]12C` [CELASTROL], the “Inhibition rate (%)” value was 72.492%.
Still for that read-out and setting: in the case of `CC(=O)OCC1=C(C(=O)O)N2C(=O)[C@@H](NC(=O)CCC[C@@H](N)C(=O)O)[C@H]2SC1` [CEPHALOSPORIN C] it was 0.4468%.
Same read-out and setting: the same measure for `CC(C)CN(C[C@@H](O)[C@H](Cc1ccccc1)NC(=O)O[C@H]1CO[C@H]2OCC[C@H]21)S(=O)(=O)c1ccc(N)cc1.CCO` [Darunavir Ethanolate]: 6.102%; for `COc1cc(OC)c(C=C2C(O)=Nc3ccccc32)c(OC)c1` [IC261]: 12.0025%.
The same measure, in the same setting: in the case of `CCOc1cc2ncc(C#N)c(Nc3ccc(OCc4ccccn4)c(Cl)c3)c2cc1NC(=O)/C=C/CN(C)C` [Neratinib(HKI-272), Neratinib] it was 14.7133%; in that of `NCCNc1ccc(NCCN)c2c1C(=O)c1ccncc1C2=O.O=C(O)/C=C\C(=O)O.O=C(O)/C=C\C(=O)O` [Pixantrone dimaleate], 67.3515%; in that of `O=C1NC(=NCc2cccs2)S/C1=C\c1ccc2ncccc2c1` [Ro-3306], 7.46%.
`C[n+]1cc2c3c(ccc2c2ccc4cc5c(cc4c21)OCO5)OCO3` [SANGUINARIUM CHLORIDE]: the “Inhibition rate (%)” value was determined as 78.0644%.

The target in the next assay is T2, STRN3–MST2 interaction. Briefly: Second-round validation AlphaScreen, STRN3–MST2 disruption (Table S4).
Details: not given
As for 6-BIO, the “Inhibition rate (%)” value is 88.2157%.
Take `Cl.Fc1ccc(-n2cc(CCCCN3CCC4(CC3)OCc3ccccc34)c3ccccc32)cc1` [Lu-28-179]: the “Inhibition rate (%)” value was found to be 47.2529%.
Same read-out and setting: the same measure for `COc1ccc(C(=C2C(=O)Nc3ccccc32)c2ccc(OC)cc2)cc1` [TAS-301]: 47.0007%.

Still in this assay, the particulars now being: 2nd round validation screen, STRN3-MST2 disruption.
As to `COC1CCN(C(=O)c2cc(Cc3n[nH]c(=O)c4ccccc34)ccc2F)CC1` [AZD2461], the “Inhibition rate (%)” value is recorded as 76.6732%.
The same measure, in the same setting: in the case of `C=CC(=O)Nc1cc(Nc2nccc(-c3cn(C)c4ccccc34)n2)c(OC)cc1N(C)CCN(C)C` [AZD9291] it was 30.3363%; in that of `CCCCc1oc2ccccc2c1C(=O)c1cc(I)c(OCCN(CC)CC)c(I)c1` [Amiodarone hydrochloride], 20.8848%; in that of `CN(C)Cc1ccc(-c2cnn3c(-c4cccc(NC(=O)c5cccc(C(F)(F)F)c5)c4)ccnc23)cc1` [B-Raf IN 1], 14.4684%.
The same measure, in the same setting: in the case of `Cc1c(-c2ccc(O)cc2)n(Cc2ccc(OCCN3CCCCCC3)cc2)c2ccc(O)cc12` [Bazedoxifene acetate] it was 49.7454%.
On the same count and under the same terms, in the case of `COc1c2ccoc2cc2oc(=O)ccc12` [Bergapten] it was 93.9669%; in that of `COc1cc(-c2ccc(N=Nc3ccc4c(S(=O)(=O)[O-])cc(S(=O)(=O)[O-])c(N)c4c3O)c(OC)c2)ccc1N=Nc1ccc2c(S(=O)(=O)[O-])cc(S(=O)(=O)[O-])c(N)c2c1O.[Na+].[Na+].[Na+].[Na+]` [CHICAGO SKY BLUE 6B], 87.119%; in that of `[H]/N=C(\N/C(=N/[H])NCCCCCCNC(=N)NC(=N)Nc1ccc(Cl)cc1)Nc1ccc(Cl)cc1` [Chlorhexidine], 57.6546%.
Regarding `CC(C)/N=c1\cc2n(-c3ccc(Cl)cc3)c3ccccc3nc-2cc1Nc1ccc(Cl)cc1` [Clofazimine], the “Inhibition rate (%)” value turned out to be 65.1805%.
On the same count and under the same terms, in the case of `CCN1c2cc(N)ccc2-c2ccc(N)cc2C1c1ccccc1` (stereo not drawn) [Dihydroethidium] it was 84.1416%; in that of `CO[C@H]1C[C@H](O[C@H]2[C@H](C)O[C@@H](O[C@@H]3/C(C)=C/C[C@@H]4C[C@@H](C[C@]5(C=C[C@H](C)[C@@H](C6CCCCC6)O5)O4)OC(=O)[C@@H]4C=C(C)[C@@H](O)[C@H]5OC/C(=C\C=C\[C@@H]3C)[C@]54O)C[C@@H]2OC)O[C@@H](C)[C@@H]1O` [Doramectin], 41.6226%; in that of `Cc1cc(O)c2c(c1)C(=O)c1cc(O)cc(O)c1C2=O` [Emodin], 36.2891%.
In the case of `Cc1cc(-c2ccc(/N=N/c3ccc4c(S(=O)(=O)O)cc(S(=O)(=O)O)c(N)c4c3O)c(C)c2)ccc1/N=N/c1ccc2c(S(=O)(=O)O)cc(S(=O)(=O)O)c(N)c2c1O` [Evans blue], the “Inhibition rate (%)” value is on record as 90.1602%.
The same measure, in the same setting: in the case of `Cc1ccc(C(=O)Nc2ccc(CN3CCN(C)CC3)c(C(F)(F)F)c2)cc1C#Cc1cnc2[nH]ncc2c1` [GZD824 Dimesylate] it was 16.2097%; in that of `CC(C)c1cc(-c2n[nH]c(=O)n2-c2ccc3c(ccn3C)c2)c(O)cc1O` [Ganetespib], 75.2321%; in that of `CC1(C)S[C@@H]2[C@H](N3C(=O)[C@@H](c4ccccc4)NC3(C)C)C(=O)N2[C@H]1C(=O)O` [HETACILLIN POTASSIUM], 87.1783%.
Turning to `NNc1nncc2ccccc12` [Hydralazine HCl], the “Inhibition rate (%)” value is given as 79.9365%.
Turning to `O=C1c2c(O)ccc(O)c2C(=O)c2c(NCCNCCO)ccc(NCCNCCO)c21` [Mitoxantrone HCl], the “Inhibition rate (%)” value is on record as 30.5153%.
In the case of `CO/N=C1\C[C@]2(C[C@@H]3C[C@@H](C/C=C(\C)C[C@@H](C)/C=C/C=C4\CO[C@@H]5[C@H](O)C(C)=C[C@@H](C(=O)O3)[C@]45O)O2)O[C@H](/C(C)=C/C(C)C)[C@H]1C` [Moxidectin], the “Inhibition rate (%)” value was determined as 46.6799%.
Same read-out and setting: in the case of `C/C(=N\NC(=S)N1CCC1)c1ccccn1` [NSC319726] it was 61.8353%; in that of `O=[N+]([O-])c1ccc(O)c2ncccc12` [Nitroxoline], 95.2288%; in that of `CCOc1cc2ncc(C#N)c(Nc3ccc(F)c(Cl)c3)c2cc1NC(=O)/C=C/CN(C)C` [Pelitinib (EKB-569), Pelitinib], 20.6862%.
On to `NCCOc1cc(C(=O)Nc2cc(OCCN)c3ccccc3n2)nc(C(=O)Nc2cc(OCCN)c3ccccc3n2)c1` [Pyridostatin], for which the “Inhibition rate (%)” value amounted to 6.622%.
On the same count and under the same terms, in the case of `CNC(=O)c1cc(Oc2ccc(NC(=O)Nc3ccc(Cl)c(C(F)(F)F)c3)c(F)c2)ccn1` [Regorafenib] it was 75.384%; in that of `CO[C@H]1C[C@H](O[C@@H]2/C(C)=C/C[C@@H]3C[C@@H](C[C@]4(CC[C@H](C)[C@@H](C5CCCCC5)O4)O3)OC(=O)[C@@H]3C=C(C)/C(=N/O)[C@H]4OC/C(=C\C=C\[C@@H]2C)[C@]43O)O[C@@H](C)[C@@H]1O` [SelaMeerin], 41.6773%; in that of `O=C(O)c1cc(O)c2c(c1)[C@@H]([C@H]1c3cc(C(=O)O)cc(O)c3C(=O)c3c(O[C@@H]4O[C@H](CO)[C@@H](O)[C@H](O)[C@H]4O)cccc31)c1cccc(O[C@@H]3O[C@H](CO)[C@@H](O)[C@H](O)[C@H]3O)c1C2=O` [Sennoside B], 68.5523%.
Same read-out and setting: the same measure for `COc1cc(NS(=O)(=O)c2ccc(N)cc2)ncn1` [Sulfamonomethoxine]: 16.2459%; for `Cc1ccc(C(=O)Nc2ccc(S(=O)(=O)[O-])c3cc(S(=O)(=O)[O-])cc(S(=O)(=O)[O-])c23)cc1NC(=O)c1cccc(NC(=O)Nc2cccc(C(=O)Nc3cc(C(=O)Nc4ccc(S(=O)(=O)[O-])c5cc(S(=O)(=O)[O-])cc(S(=O)(=O)[O-])c45)ccc3C)c2)c1.[Na+].[Na+].[Na+].[Na+].[Na+].[Na+]` [Suramin Sodium Salt]: 94.3899%.
Same read-out and setting: in the case of `COc1cc(N2CCC(N3CCN(C)CC3)CC2)ccc1Nc1ncc(Cl)c(Nc2ccccc2S(=O)(=O)C(C)C)n1` [TAE684 (NVP-TAE684), TAE684] it was 66.6494%; in that of `CCCCCCCCCCCCCCCC[N+](C)(C)CCN(Cc1ccc(OC)cc1)c1ncccn1` [THONZONIUM BROMIDE], 76.4113%; in that of `CC[C@@H](c1cccc(O)c1)[C@@H](C)CN(C)C.Cl` [Tapentadol Hydrochloride], 25.2716%.
For the molecule `CC(C)N1CCN(c2ccc(OCC3COC(Cn4cncn4)(c4ccc(Cl)cc4Cl)O3)cc2)CC1` (stereo not drawn) [Terconazole], the “Inhibition rate (%)” value is 23.916%.
Still for that read-out and setting: the same measure for `NCC(=O)Nc1ccc(-n2nc(C(F)(F)F)cc2-c2ccc3c(ccc4ccccc43)c2)cc1` [osu-03012]: 60.145%; for Abamectin: 42.4888%; for Chlorophyllin: 76.8494%.
For Glycerite, the “Inhibition rate (%)” value was 90.7883% and 47.3631%.
The same measure, in the same setting: the same measure for Spiramycin: 3.299%; for Teicoplanin: -18.5957%.
